Test results taken from article PMC9481563, “Structural insights into the pSer/pThr dependent regulation of the SHP2 tyrosine phosphatase in insulin and CD28 signaling” (Nature Communications, 2022).
“And” between values parts separate entries of the source, which are not always exact repeats. Equal entries are not always repeated. Where two headings read alike, the source gives them in different places.

Tests used:
[1] = system: D425A catalytic mutant SHP2; conditions: for AVERAGE rate: SHP2 D425A catalytic mutant (5-fold enzyme)
Wild-type SHP2 = assay: Additional DIFMUP kinetics (BioTek protocol), wild-type SHP2; conditions: different protocol (1 min read intervals, slope fitting to 3 initial points), BioTek plate reader; n = 3 technical replicates
[2] = system: SHP2 WT catalytic domain 219–528; assay: DIFMUP Michaelis-Menten kinetics, SHP2 WT catalytic domain; assay type: biochemical, human; conditions: for AVERAGE rate: SHP2 WT catalytic domain
Description: (§1) DIFMUP concentration (μM)
(§2) Source data are provided as a
(§3) lowest calibration points).
(§4) provided as a Source Data file.

SHP2 D425A mut = conditions: different protocol (1 min read intervals, slope fitting to 3 initial points), BioTek plate reader; n = 3
SHP2 H426A mut = conditions: different protocol (1 min read intervals, slope fitting to 3 initial points), BioTek plate reader; n = 3
[3] = system: active SHP2 crystallization construct (Δ(219-245)-Δ(315-323)+GSSG); assay: DIFMUP Michaelis-Menten kinetics, active SHP2 crystallization construct; assay type: biochemical, human; conditions: for Slope (DIFMUP kinetics), AVERAGE: SHP2 crystallization construct (active version), slope of fluorescence over 60 points
Description: as §1, §2, §3, §4

E. coli lysates = assay: Background phosphatase activity of E. coli lysates on DIFMUP; assay type: biochemical; conditions: n = 3 technical repeats
[4] = system: active SHP2 loop inversion (R362E); conditions: 2.5 nM enzyme, n = 3 technical repeats
[5] = system: H426A catalytic mutant SHP2; conditions: for AVERAGE rate: SHP2 H426A catalytic mutant
[6] = system: active SHP2 loop mutant (K364E); conditions: 2.5 nM enzyme, n = 3 technical repeats
[7] = 2.5 nM enzyme, pH 7.4, n = 3 technical repeats, fitted to 60 points [10 min]
[8] = 2.5 nM enzyme, n = 3 technical repeats
[9] = 2.5 nM enzyme, n = 3 technical repeats, fitted to 60 points [10 min]

Question: Which Vmax ([1]; 12.5 nM enzyme, initial rates adjusted by 1/5 as if 2.5 nM enzyme were used) does the source give for `Cc1cc(=O)oc2c(F)c(OP(=O)(O)O)c(F)cc12` [DIFMUP] here?
Answer: The Vmax was 1.60 ± 0.04 AU/tick.

Question: What about the kcat ([1]; 12.5 nM enzyme, n = 3 technical repeats, fitted to 30 points [5 min], initial rates adjusted by 1/5) of the same compound?
Answer: Its kcat is 0.86 ± 0.02 s⁻¹.

Question: What about the “kcat relative to wild-type catalytic domain (in words)” value ([1]; D425A vs wild-type, DIFMUP) of the same compound?
Answer: Its value is “reduced by about a magnitude”.

Question: And the AVERAGE rate ([1]; DIFMUP 13.169 uM)?
Answer: Its AVERAGE rate is 2.032 arb. un.

Question: What about the AVERAGE rate ([1]; DIFMUP 19.753 uM) of the same compound?
Answer: Its AVERAGE rate is 2.945 arb. un.

Question: And the AVERAGE rate ([1]; DIFMUP 29.630 uM)?
Answer: The AVERAGE rate was 3.933 arb. un.

Question: And the AVERAGE rate ([1]; DIFMUP 44.444 uM)?
Answer: Its AVERAGE rate is 4.201 arb. un.

Question: What about the AVERAGE rate ([1]; DIFMUP 66.667 uM) of the same compound?
Answer: Its AVERAGE rate is 5.009 arb. un.

Question: What about the AVERAGE rate ([1]; DIFMUP 100.000 uM) of the same compound?
Answer: Its AVERAGE rate is 5.979 arb. un.

Question: What about the Km (Wild-type SHP2) of the same compound?
Answer: The Km was 61.5 ± 8.7 µM.

Question: And the Km [2, 7]?
Answer: Its Km is 85.8 µM.

Question: What about the kcat [2, 7] of the same compound?
Answer: Its kcat is 7.76 ± 0.61 s⁻¹ and 7.76 s⁻¹.

Question: What about the Vmax [2, 8] of the same compound?
Answer: The Vmax was 14.47 ± 1.15 AU/tick.

Question: What about the AVERAGE rate ([2]; DIFMUP 13.169 uM) of the same compound?
Answer: Its AVERAGE rate is 1.988 arb. un.

Question: And the AVERAGE rate ([2]; DIFMUP 19.753 uM)?
Answer: The AVERAGE rate was 2.703 arb. un.

Question: And the AVERAGE rate ([2]; DIFMUP 29.630 uM)?
Answer: Its AVERAGE rate is 3.612 arb. un.

Question: And the AVERAGE rate ([2]; DIFMUP 44.444 uM)?
Answer: Its AVERAGE rate is 4.820 arb. un.

Question: And the AVERAGE rate ([2]; DIFMUP 66.667 uM)?
Answer: The AVERAGE rate was 5.809 arb. un.

Question: And the AVERAGE rate ([2]; DIFMUP 100.000 uM)?
Answer: Its AVERAGE rate is 8.098 arb. un.

Question: What about the “Activity @ 100 uM DIFMUP concentration” value ([2]; WT SHP2 50nM (diluted over 1/1000 from protein stock), Supplementary figure 67, n = 3) of the same compound?
Answer: Its value is 8.10 units / 10 sec.

Question: And the Km (SHP2 D425A mut)?
Answer: Its Km is 15.7 ± 0.5 µM.

Question: And the Vmax (SHP2 D425A mut)?
Answer: The Vmax was 6.1 ± 0.1 µM/min.

Question: What about the Km (SHP2 H426A mut) of the same compound?
Answer: Its Km is 16.2 ± 1 µM.

Question: What about the Vmax (SHP2 H426A mut) of the same compound?
Answer: The Vmax was 60.9 ± 1.1 µM/min.

Question: And the Vmax [3, 8]?
Answer: Its Vmax is 15.53 ± 1.02 AU/tick.

Question: What about the Km [3, 9] of the same compound?
Answer: Its Km is 61.6 µM.

Question: And the kcat [3, 9]?
Answer: The kcat was 8.33 ± 0.55 s⁻¹ and 8.33 s⁻¹.

Question: What about the “Slope (DIFMUP kinetics), AVERAGE” value ([3]; DIFMUP 13.169 uM, average of wells #1-#3 (n = 3)) of the same compound?
Answer: The value was 2.782.

Question: What about the “Slope (DIFMUP kinetics)” value ([3]; DIFMUP 13.169 uM, Well #1 (replicate 1)) of the same compound?
Answer: The value was 3.041.

Question: And the “Slope (DIFMUP kinetics)” value ([3]; DIFMUP 13.169 uM, Well #2 (replicate 2))?
Answer: Its value is 2.689.

Question: What about the “Slope (DIFMUP kinetics)” value ([3]; DIFMUP 13.169 uM, Well #3 (replicate 3)) of the same compound?
Answer: The value was 2.615.

Question: What about the “Slope (DIFMUP kinetics), AVERAGE” value ([3]; DIFMUP 19.753 uM, average of wells #4-#6 (n = 3)) of the same compound?
Answer: Its value is 3.809.

Question: What about the “Slope (DIFMUP kinetics)” value ([3]; DIFMUP 19.753 uM, Well #4 (replicate 1)) of the same compound?
Answer: The value was 4.168.

Question: What about the “Slope (DIFMUP kinetics)” value ([3]; DIFMUP 19.753 uM, Well #5 (replicate 2)) of the same compound?
Answer: The value was 3.323.

Question: And the “Slope (DIFMUP kinetics)” value ([3]; DIFMUP 19.753 uM, Well #6 (replicate 3))?
Answer: The value was 3.937.

Question: And the “Slope (DIFMUP kinetics), AVERAGE” value ([3]; DIFMUP 29.630 uM, average of wells #7-#9 (n = 3))?
Answer: Its value is 5.066.

Question: What about the “Slope (DIFMUP kinetics)” value ([3]; DIFMUP 29.630 uM, Well #7 (replicate 1)) of the same compound?
Answer: Its value is 5.203.

Question: And the “Slope (DIFMUP kinetics)” value ([3]; DIFMUP 29.630 uM, Well #8 (replicate 2))?
Answer: Its value is 4.962.

Question: And the “Slope (DIFMUP kinetics)” value ([3]; DIFMUP 29.630 uM, Well #9 (replicate 3))?
Answer: Its value is 5.032.

Question: And the “Slope (DIFMUP kinetics), AVERAGE” value ([3]; DIFMUP 44.444 uM, average of wells #10-#12 (n = 3))?
Answer: Its value is 5.531.

Question: What about the “Slope (DIFMUP kinetics)” value ([3]; DIFMUP 44.444 uM, Well #10 (replicate 1)) of the same compound?
Answer: Its value is 5.910.

Question: And the “Slope (DIFMUP kinetics)” value ([3]; DIFMUP 44.444 uM, Well #11 (replicate 2))?
Answer: The value was 4.893.

Question: What about the “Slope (DIFMUP kinetics)” value ([3]; DIFMUP 44.444 uM, Well #12 (replicate 3)) of the same compound?
Answer: Its value is 5.789.

Question: And the “Slope (DIFMUP kinetics), AVERAGE” value ([3]; DIFMUP 66.667 uM, average of wells #13-#15 (n = 3))?
Answer: Its value is 7.955.

Question: And the “Slope (DIFMUP kinetics)” value ([3]; DIFMUP 66.667 uM, Well #13 (replicate 1))?
Answer: The value was 8.503.

Question: What about the “Slope (DIFMUP kinetics)” value ([3]; DIFMUP 66.667 uM, Well #14 (replicate 2)) of the same compound?
Answer: The value was 7.526.

Question: What about the “Slope (DIFMUP kinetics)” value ([3]; DIFMUP 66.667 uM, Well #15 (replicate 3)) of the same compound?
Answer: Its value is 7.836.

Question: What about the “Slope (DIFMUP kinetics), AVERAGE” value ([3]; DIFMUP 100.000 uM, average of wells #16-#18 (n = 3)) of the same compound?
Answer: Its value is 9.899.

Question: And the “Slope (DIFMUP kinetics)” value ([3]; DIFMUP 100.000 uM, Well #16 (replicate 1))?
Answer: Its value is 9.510.

Question: What about the “Slope (DIFMUP kinetics)” value ([3]; DIFMUP 100.000 uM, Well #17 (replicate 2)) of the same compound?
Answer: The value was 9.633.

Question: And the “Slope (DIFMUP kinetics)” value ([3]; DIFMUP 100.000 uM, Well #18 (replicate 3))?
Answer: Its value is 10.553.

Question: What about the “Activity @ 100 uM DIFMUP concentration” value (E. coli lysates; Undiluted lysate, 2 μl sample to 40 μl reaction mix, 30 data points) of the same compound?
Answer: The value was 2.33 units / 10 sec.

Question: And the “Activity @ 100 uM DIFMUP concentration” value (E. coli lysates; lysate 1/100 dilution)?
Answer: The value was -0.38 units / 10 sec.

Question: And the “Activity @ 100 uM DIFMUP concentration” value (E. coli lysates; lysate 1/1000 dilution)?
Answer: Its value is -0.46 units / 10 sec.

Question: What about the Vmax [4] of the same compound?
Answer: The Vmax was 90.10 ± 17.75 AU/tick.

Question: What about the Km ([4]; fitted to 30 points [5 min]) of the same compound?
Answer: Its Km is 409 µM.

Question: What about the kcat ([4]; fitted to 30 points [5 min]) of the same compound?
Answer: The kcat was 48.30 ± 9.52 s⁻¹ and 48.30 s⁻¹.

Question: What about the Vmax [5, 8] of the same compound?
Answer: The Vmax was 5.10 ± 0.21 AU/tick.

Question: What about the Km [5, 9] of the same compound?
Answer: Its Km is 76.2 ± 3.72 µM.

Question: What about the kcat [5, 9] of the same compound?
Answer: Its kcat is 2.73 ± 0.11 s⁻¹.

Question: And the AVERAGE rate ([5]; DIFMUP 13.169 uM)?
Answer: Its AVERAGE rate is 0.752 arb. un.

Question: What about the AVERAGE rate ([5]; DIFMUP 19.753 uM) of the same compound?
Answer: The AVERAGE rate was 1.005 arb. un.

Question: And the AVERAGE rate ([5]; DIFMUP 29.630 uM)?
Answer: The AVERAGE rate was 1.390 arb. un.

Question: What about the AVERAGE rate ([5]; DIFMUP 44.444 uM) of the same compound?
Answer: The AVERAGE rate was 1.911 arb. un.

Question: What about the AVERAGE rate ([5]; DIFMUP 66.667 uM) of the same compound?
Answer: Its AVERAGE rate is 2.416 arb. un.

Question: And the AVERAGE rate ([5]; DIFMUP 100.000 uM)?
Answer: Its AVERAGE rate is 2.837 arb. un.

Question: What about the Vmax [6] of the same compound?
Answer: The Vmax was 63.41 ± 6.17 AU/tick.

Question: And the Km ([6]; fitted to 30 points [5 min])?
Answer: The Km was 126 µM.

Question: What about the kcat ([6]; fitted to 30 points [5 min]) of the same compound?
Answer: The kcat was 33.99 ± 3.31 s⁻¹ and 33.99 s⁻¹.
